# Data: patent US7592316B2, “Peptides as NS3-serine protease inhibitors of hepatitis C virus” (Schering Corporation, priority 2000, dated 2009)
# Biological target: HCV NS3/NS4A protease (strain 1a) (Hepatitis C virus genotype 1a, UniProt P27958)
# Experiment: biochemical
# Settings: Table 6; HCV NS3/NS4A protease, 30° C., pH 6.5; read-out: Ki*
row,Compound,Ki [µM]
1,CCC[C@H](NC(=O)[C@@H]1[C@@H]2[C@H](CN1C(=O)[C@@H](NC(=O)OC(C)(C)C)C1CCCCC1)C2(C)C)C(=O)C(=O)NCC(=O)N[C@H](CC(=O)N(C)C)c1ccccc1,0.001 to 0.1
2,CCCC(NC(=O)[C@@H]1[C@@H]2[C@H](CN1C(=O)[C@@H](NC(=O)OC(C)(C)C)C1CCCCC1)C2(C)C)C(=O)C(=O)NCC(=O)N[C@@H](CC(=O)N(C)C)c1ccccc1 (some centres unmarked),0.001 to 0.1
3,CCCC(NC(=O)[C@@H]1[C@@H]2[C@H](CN1C(=O)[C@@H](NC(=O)OC(C)(C)C)C1CCCCC1)C2(C)C)C(=O)C(=O)N[C@H](CC(=O)N(C)C)c1ccccc1 (some centres unmarked),> 1
4,CCCC(NC(=O)[C@@H]1[C@@H]2[C@H](CN1C(=O)[C@@H](NC(=O)OC(C)(C)C)C1CCCCC1)C2(C)C)C(=O)C(=O)N[C@@H](CC(=O)N(C)C)c1ccccc1 (some centres unmarked),0.101 to 1
5,CN(C)C(=O)[C@@H](NC(=O)CNC(=O)C(=O)C(CC1CC1)NC(=O)[C@@H]1[C@@H]2[C@H](CN1C(=O)[C@@H](NC(=O)OC(C)(C)C)C1CCC(F)(F)CC1)C2(C)C)c1ccccc1 (some centres unmarked),0.001 to 0.1
6,C=CCNC(=O)C(=O)C(CC(F)(F)F)NC(=O)[C@@H]1[C@@H]2[C@H](CN1C(=O)[C@@H](NC(=O)NC(C)(C)C)C1CCCCC1)C2(C)C (some centres unmarked),0.001 to 0.1
7,CC(C)(C)NC(=O)N[C@H](C(=O)N1C[C@H]2[C@@H]([C@H]1C(=O)NC(CC1CC1(F)F)C(=O)C(N)=O)C2(C)C)C(C)(C)C (some centres unmarked),0.001 to 0.1
8,CC(C)(C)OC(=O)N[C@H](C(=O)N1C[C@H]2[C@@H]([C@H]1C(=O)NC(CCC(F)F)C(=O)C(N)=O)C2(C)C)C(C)(C)C (some centres unmarked),0.101 to 1
9,CC(C)(C)NC(=O)N[C@H](C(=O)N1C[C@H]2[C@@H]([C@H]1C(=O)NC(CCC(F)F)C(=O)C(N)=O)C2(C)C)C(C)(C)C (some centres unmarked),0.101 to 1
10,CN(C)C(=O)c1nc(CNC(=O)C(=O)C(CC2CCC2)NC(=O)[C@@H]2[C@@H]3[C@H](CN2C(=O)[C@@H](NC(=O)NC(C)(C)C)C(C)(C)C)C3(C)C)sc1-c1ccccc1 (some centres unmarked),0.101 to 1
11,CC1C[C@H]2CN(C(=O)[C@@H](NC(=O)OC(C)(C)C)C3CCCCC3)[C@H](C(=O)NC(CC3CC3)C(=O)C(=O)NCC(=O)N[C@H](C(=O)N(C)C)c3ccccc3)[C@H]2C1 (some centres unmarked),0.001 to 0.1
12,CC(C)(C)OC(=O)N[C@H](C(=O)N1C[C@@H]2CCC[C@@H]2[C@H]1C(=O)NC(CC1CCC1)C(=O)C(N)=O)C1CCCCC1 (some centres unmarked),0.101 to 1
13,CC(C)(C)OC(=O)N[C@H](C(=O)N1C[C@@H]2CCC[C@@H]2[C@H]1C(=O)NC(CC1CC1)C(=O)C(N)=O)C1CCCCC1 (some centres unmarked),0.101 to 1
14,CN(C)C(=O)[C@@H](NC(=O)CNC(=O)C(=O)[C@@H](CC1CCC1)NC(=O)[C@@H]1[C@H]2CC(F)(F)C[C@H]2CN1C(=O)[C@@H](NC(=O)OC(C)(C)C)C1CCCCC1)c1ccccc1,0.001 to 0.1
15,CN(C)C(=O)[C@@H](NC(=O)CNC(=O)C(=O)[C@H](CC1CCC1)NC(=O)[C@@H]1[C@H]2CC(F)(F)C[C@H]2CN1C(=O)[C@@H](NC(=O)OC(C)(C)C)C1CCCCC1)c1ccccc1,0.001 to 0.1
16,CN(C)C(=O)[C@@H](NC(=O)CNC(=O)C(=O)C(CC1CC1)NC(=O)[C@@H]1[C@H]2CC(F)(F)C[C@H]2CN1C(=O)[C@@H](NC(=O)OC(C)(C)C)C1CCCCC1)c1ccccc1 (some centres unmarked),0.001 to 0.1
17,CC(C)(C)OC(=O)N[C@H](C(=O)N1C[C@@H]2CC(F)(F)C[C@@H]2[C@H]1C(=O)NC(CC1CCC1)C(=O)C(N)=O)C1CCCCC1 (some centres unmarked),0.101 to 1
18,CC(C)(C)OC(=O)N[C@H](C(=O)N1C[C@@H]2CC(F)(F)C[C@@H]2[C@H]1C(=O)NC(CC1CCC1)C(=O)C(N)=O)C(C)(C)C (some centres unmarked),0.101 to 1
19,CC(C)(C)OC(=O)N[C@H](C(=O)N1C[C@@H]2CC(F)(F)C[C@@H]2[C@H]1C(=O)NC(CCC(F)F)C(=O)C(N)=O)C(C)(C)C (some centres unmarked),0.101 to 1
20,CN(C)C(=O)[C@@H](NC(=O)CNC(=O)C(=O)C(CCC(F)F)NC(=O)[C@@H]1[C@H]2CC(C)(C)O[C@H]2CN1C(=O)[C@@H](NC(=O)OC(C)(C)C)C1CCCCC1)c1ccccc1 (some centres unmarked),0.001 to 0.1
21,CN(C)C(=O)[C@@H](NC(=O)CNC(=O)C(=O)C(CCC(F)F)NC(=O)[C@@H]1[C@H]2CC(F)(F)C[C@H]2CN1C(=O)[C@@H](NC(=O)OC(C)(C)C)C1CCCCC1)c1ccccc1 (some centres unmarked),0.001 to 0.1
22,CC1C[C@H]2CN(C(=O)[C@@H](NC(=O)OC(C)(C)C)C3CCCCC3)[C@H](C(=O)NC(CCC(F)F)C(=O)C(=O)NCC(=O)N[C@H](C(=O)N(C)C)c3ccccc3)[C@H]2C1 (some centres unmarked),0.001 to 0.1
23,C[C@@H](NC(=O)N[C@H](C(=O)N1C[C@@H]2OC(C)(C)C[C@@H]2[C@H]1C(=O)NC(CC1CC1)C(=O)C(=O)NCC(=O)NC(C(=O)N(C)C)c1ccccc1)C1CCCCC1)C(C)(C)C (some centres unmarked),0.001 to 0.1
24,CC(C)(C)NC(=O)N[C@H](C(=O)N1C[C@H]2[C@@H]([C@H]1C(=O)NC(CC1(F)CCC1)C(=O)C(N)=O)C2(C)C)C(C)(C)C (some centres unmarked),0.101 to 1
25,CC(C)(C)OC(=O)N[C@H](C(=O)N1C[C@@H]2CC3(CC3)C[C@@H]2[C@H]1C(=O)NC(CC1CCC1)C(=O)C(N)=O)C(C)(C)C (some centres unmarked),0.101 to 1
26,CC(F)(F)CC(NC(=O)[C@@H]1[C@@H]2[C@H](CN1C(=O)[C@@H](NC(=O)OC(C)(C)C)C1CCCCC1)C2(C)C)C(=O)C(N)=O (some centres unmarked),0.101 to 1
27,CN(C)C(=O)[C@@H](NC(=O)CNC(=O)C(=O)[C@@H](CC1CCC1)NC(=O)[C@@H]1[C@H]2CC3(CC3)C[C@H]2CN1C(=O)[C@@H](NC(=O)OC(C)(C)C)C(C)(C)C)c1ccccc1,0.101 to 1

row,Compound,Ki [µM]
1,CN(C)C(=O)[C@@H](NC(=O)CNC(=O)C(=O)[C@H](CC1CCC1)NC(=O)[C@@H]1[C@H]2CC3(CC3)C[C@H]2CN1C(=O)[C@@H](NC(=O)OC(C)(C)C)C(C)(C)C)c1ccccc1,0.001 to 0.1
2,CC(F)(F)CC(NC(=O)[C@@H]1[C@@H]2[C@H](CN1C(=O)[C@@H](NC(=O)NC1(C)CCCCC1)C1CCCCC1)C2(C)C)C(=O)C(N)=O (some centres unmarked),0.101 to 1
3,CC(F)(F)CC(NC(=O)[C@@H]1[C@@H]2[C@H](CN1C(=O)[C@@H](NC(=O)NC1(C)CCCCC1)C(C)(C)C)C2(C)C)C(=O)C(N)=O (some centres unmarked),0.001 to 0.1
4,CN(C)C(=O)[C@@H](NC(=O)CNC(=O)C(=O)C(CC1CC1)NC(=O)[C@@H]1[C@H]2CC3(CC3)C[C@H]2CN1C(=O)[C@@H](NC(=O)OC(C)(C)C)C(C)(C)C)c1ccccc1 (some centres unmarked),0.001 to 0.1
5,CN(C)C(=O)[C@@H](NC(=O)CNC(=O)C(=O)C(CCC(F)F)NC(=O)[C@@H]1[C@H]2CC3(CC3)C[C@H]2CN1C(=O)[C@@H](NC(=O)OC(C)(C)C)C(C)(C)C)c1ccccc1 (some centres unmarked),0.001 to 0.1
6,CN(C)C(=O)[C@@H](NC(=O)CNC(=O)C(=O)C(CC1CCC1)NC(=O)[C@@H]1[C@H]2CC(C)(C)C[C@H]2CN1C(=O)[C@@H](NC(=O)OC(C)(C)C)C(C)(C)C)c1ccccc1 (some centres unmarked),0.001 to 0.1
7,CN(C)C(=O)[C@@H](NC(=O)CNC(=O)C(=O)C(CC1CC1)NC(=O)[C@@H]1[C@H]2CC(C)(C)C[C@H]2CN1C(=O)[C@@H](NC(=O)OC(C)(C)C)C(C)(C)C)c1ccccc1 (some centres unmarked),0.001 to 0.1
8,CN(C)C(=O)[C@@H](NC(=O)CNC(=O)C(=O)C(CCC(F)F)NC(=O)[C@@H]1[C@H]2CC(C)(C)C[C@H]2CN1C(=O)[C@@H](NC(=O)OC(C)(C)C)C(C)(C)C)c1ccccc1 (some centres unmarked),0.001 to 0.1
9,CN(C)C(=O)C(NC(=O)CNC(=O)C(=O)C(CC1CC1)NC(=O)[C@@H]1[C@H]2CC(C)(C)O[C@H]2CN1C(=O)[C@@H](NC(=O)OC1C2(C)CCC(C2)C1(C)C)C1CCCCC1)c1ccccc1 (some centres unmarked),0.001 to 0.1
10,CCOC(=O)CCNC(=O)N[C@H](C(=O)N1C[C@H]2[C@@H]([C@H]1C(=O)NC(CC1CCC1)C(=O)C(N)=O)C2(C)C)C1CCCCC1 (some centres unmarked),0.001 to 0.1
11,CC1(NC(=O)N[C@H](C(=O)N2C[C@H]3[C@@H]([C@H]2C(=O)NC(CC2(F)CCC2)C(=O)C(N)=O)C3(C)C)C(C)(C)C)CCCCC1 (some centres unmarked),0.001 to 0.1
12,COC[C@@H](NC(=O)N[C@H](C(=O)N1C[C@@H]2OC(C)(C)C[C@@H]2[C@H]1C(=O)NC(CC1CC1)C(=O)C(=O)NCC(=O)NC(C(=O)N(C)C)c1ccccc1)C1CCCCC1)C(C)(C)C (some centres unmarked),0.001 to 0.1
13,CC(C)(C)NC(=O)N[C@H](C(=O)N1CC(CNC(=O)OCc2ccccc2)C[C@H]1C(=O)NC(CC1CCC1)C(=O)C(N)=O)C(C)(C)C (some centres unmarked),0.101 to 1
14,CC(C)(C)OC(=O)N[C@H](C(=O)N1C[C@H]2[C@@H]([C@H]1C(=O)NC(CC1CCC1)C(=O)C(N)=O)C21CC1)C(C)(C)C (some centres unmarked),0.101 to 1
15,CN(C)C(=O)[C@@H](NC(=O)CNC(=O)C(=O)C(CC1COC1)NC(=O)[C@@H]1[C@H]2CC(C)(C)O[C@H]2CN1C(=O)[C@@H](NC(=O)OC(C)(C)C)C1CCCCC1)c1ccccc1 (some centres unmarked),0.001 to 0.1
16,CC1(C)C[C@H]2[C@H](CN(C(=O)C(NC(=O)NC34CC5CC(CC(C5)C3)C4)C3CCCCC3)[C@@H]2C(=O)NC(CC2CCC2)C(=O)C(N)=O)O1 (some centres unmarked),0.101 to 1
17,CC(C)(C)[C@H](NC(=O)NC12CC3CC(CC(C3)C1)C2)C(=O)N1C[C@H]2[C@@H]([C@H]1C(=O)NC(CC1CC1)C(=O)C(N)=O)C2(Cl)Cl (some centres unmarked),0.001 to 0.1
18,CC(C)(C)[C@H](NC(=O)NC12CC3CC(CC(C3)C1)C2)C(=O)N1C[C@H]2[C@@H]([C@H]1C(=O)NC(CC1CCC1)C(=O)C(N)=O)C2(Cl)Cl (some centres unmarked),0.001 to 0.1
19,NC(=O)C(=O)C(CC1CCC1)NC(=O)[C@@H]1[C@@H]2[C@H](CN1C(=O)[C@@H](NC(=O)NC13CC4CC(CC(C4)C1)C3)C1CCCCC1)C2(Cl)Cl (some centres unmarked),0.001 to 0.1
20,CC(C)(C)OC(=O)N[C@H](C(=O)N1C[C@H]2[C@@H]([C@H]1C(=O)NC(CC1CC1(F)F)C(=O)C(N)=O)C2(C)C)C(C)(C)C (some centres unmarked),0.001 to 0.1
21,CC(C)(C)OC(=O)N[C@H](C(=O)N1C[C@H]2[C@@H]([C@H]1C(=O)NC(CC1CC1(F)F)C(=O)C(N)=O)C2(C)C)C1CCCCC1 (some centres unmarked),0.001 to 0.1
22,CC1(NC(=O)N[C@H](C(=O)N2C[C@H]3[C@@H]([C@H]2C(=O)NC(CC2CC2(F)F)C(=O)C(N)=O)C3(C)C)C2CCCCC2)CCCCC1 (some centres unmarked),0.001 to 0.1
23,CC1(NC(=O)N[C@H](C(=O)N2C[C@H]3[C@@H]([C@H]2C(=O)NC(CC2CC2(F)F)C(=O)C(N)=O)C3(C)C)C(C)(C)C)CCCCC1 (some centres unmarked),0.001 to 0.1
24,CN(C)C(=O)[C@@H](NC(=O)CNC(=O)C(=O)C(CC1CC1)NC(=O)[C@@H]1[C@H]2CC(C)(C)O[C@H]2CN1C(=O)[C@@H](NC(=O)OC(C)(C)C)C(C)(C)C)c1ccccc1 (some centres unmarked),0.001 to 0.1
25,CN(C)C(=O)[C@@H](NC(=O)CNC(=O)C(=O)C(CC1CC1)NC(=O)[C@@H]1[C@H]2CC(C)(C)O[C@H]2CN1C(=O)[C@@H](NC(=O)NC(C)(C)C)C1(C)CCCCC1)c1ccccc1 (some centres unmarked),0.001 to 0.1
26,CC1(C)C2CN(C(=O)[C@@H](NC(=O)NC3(C(F)(F)F)CC3)C(C)(C)C)[C@H](C(=O)NC(CC3CCC3)C(=O)C(N)=O)C21 (some centres unmarked),0.001 to 0.1
